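Dose response: 5 concentrations. Exposure: 48 h. Format: 96-well plates. Endpoint: linear interpolation; highest concentration if not reached. Here, GI50 denotes the concentration required for 50% inhibition of growth.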 Calls of active or inactive are those of the source. No stated cut-off is given here; in the data, active = GI50 up to about 1.1 µM and inactive = higher.
tested on: NCI-H322M; experiment: inhibition of tumour cell growth, NCI panel, 48 h

Structure (SMILES)	GI50
CCOC(=O)c1c(N2CCCC2)[nH]c(=O)c(C(c2ccc(Cl)c([N+](=O)[O-])c2)c2c(O)c(C(=O)OCC)c(N3CCCC3)[nH]c2=O)c1O	inactive: > 100 µM
CCN(CC)c1c(C(=O)/C=C/c2ccc(Cl)cc2)c(-c2ccccc2)nn(C)c1=O	inactive: 1.96 µM
Oc1c(Br)cc(/C=C/c2ccnc(/C=C/c3cc(Br)c(O)c(Br)c3)c2)cc1Br	inactive: 30.3 µM
CC(=O)Oc1ccc(O)c(O)c1C/C=C(\C)CC/C=C(\C)CC/C=C(\C)CCC=C(C)C [TETRAPRENYLPHENOLSUILLIN]	inactive: 1.84 µM
Cc1ccc([N+](=O)[O-])cc1/N=N/C(=O)NNc1cc([N+](=O)[O-])ccc1C	inactive: 80.4 µM
Oc1ccc(C(c2ccc(O)cc2)c2ccc(O)cc2)cc1	inactive: 22.5 µM
CC1=C(C(=O)Nc2ccccc2)C(c2ccccc2)C(C(=O)Nc2ccccc2)=C(C)N1	inactive: 95.9 µM
CC1(C)CC[C@]2(C(=O)O)[C@H](O)C[C@]3(C)C(=CC[C@@H]4[C@@]5(C)CC[C@H](OC6OC(C(=O)O)C(O)C(O)C6O)C(C)(C)[C@@H]5CC[C@]43C)[C@@H]2C1 (some centres undefined)	inactive: 50.8 µM
OC(c1ccc(F)cc1)C(F)(F)c1nc(-c2ccccc2)no1 (centres undefined)	inactive: 49.8 µM
CC(=O)n1c(COS(C)(=O)=O)nc2ccccc21	inactive: > 100 µM
O=C(Cn1c(=O)ccn(C2OC(CO)C(O)C2F)c1=O)c1ccc(F)cc1 (centres undefined)	inactive: > 100 µM
O=C(Nc1ccc(Sc2ccc(/N=N/c3c(O)c(S(=O)(=O)O)cc4cc(S(=O)(=O)O)ccc34)cc2)cc1)c1ccc(/N=N/c2c(O)c(S(=O)(=O)O)cc3cc(S(=O)(=O)O)ccc23)cc1	inactive: 32.3 µM
CC(Br)CN(CC(C)Br)c1ccc2c(c1)Cc1ccccc1-2 (centres undefined)	inactive: 15.3 µM
Cc1cc(C(O)CNC(C)CCn2cnc3c2c(=O)n(C)c(=O)n3C)ccc1O (centres undefined)	inactive: > 100 µM
CC(=O)OCCOCNC(=S)N/N=C(\C)c1cnccn1	inactive: 25.1 µM
C=CCN(c1cc(OCc2ccccc2)c2[nH]cc(C)c2c1)S(C)(=O)=O	inactive: 33.9 µM
Cc1c(F)c(N)c2c(=O)cc(-c3ccc(NC(=O)[C@@H](N)CCCCN)c(F)c3)oc2c1F	inactive: 13.3 µM
O=[N+]([O-])c1ccccc1S(=O)(=O)c1cc(Cl)cc2c1NCCC2	inactive: > 100 µM
CC[C@]1(Cc2ccc(OC)c(OC)c2)C2CC(C(=O)OC)ON2O[C@H](OCc2ccccc2)[C@@H]1OC(C)=O (some centres undefined)	inactive: > 100 µM
C[C@]12CC[C@@H]3c4ccccc4CC[C@H]3[C@@H]1CC[C@@H]2O	inactive: > 100 µM
CCOC(=O)CCC(NC(=O)c1ccc(/N=C/c2nc3cc(C(F)(F)F)ccc3nc2-c2ccccc2)cc1)C(=O)OCC (centres undefined)	inactive: > 50 µM

Structure (SMILES)	GI50
CC(C)(C)OC(=O)NCC(=O)NC1c2ccsc2/C(=N/O)[C@H]1O (some centres undefined)	inactive: > 100 µM
COc1ccc(/C(=N/NC(N)=O)C(c2ccc(OC)cc2)C2C(=O)Oc3ccccc32)cc1 (centres undefined)	inactive: > 100 µM
COc1cc(NS(C)(=O)=O)ccc1NCc1c2ccccc2nc2ccccc12	inactive: > 100 µM
CCCCC1Cc2cc(O)ccc2-c2nc3cc(O)ccc3n21.CCCCC1Cc2cc(O)ccc2-c2nc3ccc(O)cc3n21 (centres undefined)	inactive: 25.6 µM
COc1nc(N)c(C(=O)CCl)c(=O)n1C	inactive: 16.7 µM
CC(=O)/C(=C/NC(=S)N/N=C1\C(=O)Nc2ccccc21)C(=O)Nc1ccccc1C	inactive: > 100 µM
CC(C)(C)C1CCC2c3c([nH]c4ccccc34)C3C(=O)N(c4ccccc4)C(=O)C3C2C1 (centres undefined)	inactive: 23.1 µM
CCn1cnnc1-c1nsc2ccccc12	inactive: > 100 µM
Cc1ccc(S(=O)(=O)Nc2ccccc2C(C)(C)C)cc1	inactive: 23 µM
CCCCCCCCCCC1OC([C@@H](O)CC[C@H](O)C2CC[C@@H](CCCCCCCC(O)CC3=CC(C)OC3=O)O2)CCC1O (some centres undefined)	inactive: 10.1 µM
COc1ccc2cc(CNCCCN3CCN(CCCNCc4ccc5cc(OC)ccc5c4)CC3)ccc2c1	inactive: 1.75 µM
COc1cc(C2C(=O)C(Cl)N2Nc2nc(C)cc(O)n2)cc(OC)c1OC (centres undefined)	inactive: 15 µM
Cc1cn(C2CC(O)C(CO[Si](C)(C)C(C)(C)C)OC2OC(C)C)c(=O)[nH]c1=O (centres undefined)	inactive: 92 µM
CCOC(=O)[C@@]12C(C)=CC(=O)O[C@]1(C)C1C(=O)NC(=O)C12 (some centres undefined)	inactive: > 100 µM
CC(C)(C)C1=CC(=C(c2ccc(-c3c4nc(c(-c5ccc(C(=C6C=C(C(C)(C)C)C(=O)C(C(C)(C)C)=C6)c6cc(C(C)(C)C)c(O)c(C(C)(C)C)c6)cc5)c5ccc([nH]5)c(-c5ccc(C(=C6C=C(C(C)(C)C)C(=O)C(C(C)(C)C)=C6)c6cc(C(C)(C)C)c(O)c(C(C)(C)C)c6)cc5)c5nc(c(-c6ccc(C(=C7C=C(C(C)(C)C)C(=O)C(C(C)(C)C)=C7)c7cc(C(C)(C)C)c(O)c(C(C)(C)C)c7)cc6)c6ccc3[nH]6)C=C5)C=C4)cc2)c2cc(C(C)(C)C)c(O)c(C(C)(C)C)c2)C=C(C(C)(C)C)C1=O	inactive: > 100 µM
COc1cc(C(C)c2cc3c(cc2OCCOCCOc2cc4c(cc2C(C)c2cc(OC)c(OC)c(OC)c2)OCO4)OCO3)cc(OC)c1OC (centres undefined)	inactive: > 10 µM
O=c1c2cc3c(=O)n(CCc4ccccc4CO)c(=O)c3cc2c(=O)n1CCc1ccccc1CO	inactive: > 100 µM
CC[C@@]1(O)C(=O)OCc2c1cc1n(c2=O)Cc2c-1nc1ccccc1c2/C=N\NC(=O)C(C)N (some centres undefined)	inactive: 1.52 µM
NCCCCNCCCNC(=O)c1csc(-c2nc(CCN)sc2Cl)n1	inactive: > 100 µM
C/N=c1\ss/c(=N\C(=S)N(C)C)n1-c1ccccc1	inactive: > 100 µM
CC1(C)OC(=S)N(c2ccccc2)C12C=Cc1cc3ccccc3cc1O2 (centres undefined)	inactive: > 100 µM

Structure (SMILES)	GI50
COc1ccc(/C=C/C(=O)c2cc(C(C)(C)C)c(O)c(C(C)(C)C)c2)cc1OC	inactive: 24.2 µM
CCN(CC)CC/N=C\c1c(O)c(O)c(C(C)C)c2cc(C)c(-c3c(C)cc4c(C(C)C)c(O)c(O)c(/C=N/CCN(CC)CC)c4c3O)c(O)c12	inactive: 6.17 µM
Brc1ccc(N2C[N+](c3ccc(Br)cc3)=NC(c3ccccc3)=N2)cc1.[O-][Cl+3]([O-])([O-])[O-]	inactive: 68.7 µM
O=S1(=O)c2ccccc2NC(=S)CC1c1ccccc1 (centres undefined)	inactive: > 100 µM
C=CCO[C@]1(CC=C)C(=O)C(=O)OC1C1COC(C)(C)O1 (some centres undefined)	inactive: > 100 µM
CS(=O)(=O)NNS(=O)(=O)c1ccccc1	inactive: > 100 µM
Cc1ccc(Oc2cc(C)ccc2P(=O)(O)O)cc1	inactive: > 100 µM
Cc1cccc(C(O)c2cccnc2)c1O (centres undefined)	inactive: > 100 µM
O=c1c2c3c(sc2nc2n1NC=NN2)CCCC3	inactive: > 55.3 µM
CCOC(=O)N1CCN(Cc2cc(=O)n3cc(C)ccc3n2)CC1	inactive: > 100 µM
CSC(=N)N1N=C2c3ccccc3CC[C@@H]2[C@@H]1c1ccccc1	inactive: 15.7 µM
N#Cc1c(N2CCN(c3ccc([N+](=O)[O-])cc3)CC2)[n+]([O-])c2ccccc2[n+]1[O-]	inactive: > 100 µM
COc1ccc(C[C@H]2NC[C@H](O)[C@H]2OC(C)=O)cc1 [ANISOMYCIN]	active: 0.0208 µM
CC1(C)C2CCC1(C)C(N/C(Sc1ccccc1)=C(/C(Cl)=C(Cl)Cl)[N+](=O)[O-])C2 (centres undefined)	inactive: 17.7 µM
COc1ccc(-c2oc(/C=N/NC(N)=S)c([N+](=O)[O-])c2-c2ccc(OC)c(OC)c2)cc1OC	inactive: 55.7 µM
COc1cc2c3c(c1OC)C1(C=CC(=O)C=C1)CC3NCC2 (centres undefined)	inactive: > 100 µM
C=CC1(c2ccc(-c3ccccc3)cc2)OCCO1	inactive: 30.8 µM
CC1(C)OC2CN(C(=O)OCc3ccccc3)C(CO)C2O1 (centres undefined)	inactive: > 100 µM
CC12CCC3c4cc(Br)c(O)c(Br)c4CCC3C1CCC2O (centres undefined)	inactive: 15.5 µM
CN1CC(=O)N(C)c2[nH]cnc2C1=O	inactive: > 100 µM
CC1(C)OC(=O)C(=C2CC(c3ccccc3)c3ccccc32)C(=O)O1 (centres undefined)	inactive: > 100 µM

Structure (SMILES)	GI50
CCCCc1c2c(nc3c1CCC/C3=C\c1ccccc1)C(=O)C(CN(C)C)CC2 (centres undefined)	inactive: 10.9 µM
CCCC(=O)OCC1OC(n2cc(F)c(=O)[nH]c2=O)C(F)C1OC(=O)CCC (centres undefined)	inactive: 58.7 µM
CC(=O)O/C=C(/C=C/OC(C)=O)C(C/C=C(\C)C#CC=C(C)C)OC(C)=O (centres undefined)	inactive: 68.4 µM
O=C(NCc1ccccc1)c1cnc(Cl)cn1	inactive: 28.1 µM
CCCN(CCC)C(=S)N/N=C(/C)c1ccccc1O	inactive: 7.59 µM
OCSc1nn(CO)c(=S)s1	inactive: 41.7 µM
Oc1ccc(-c2nc3cc(C(F)(F)F)ccc3n2CC2CCCN3CCCCC23)cc1 (centres undefined)	inactive: 13.6 µM
CN1Cc2ccccc2S(=O)(=O)n2cccc2C1=O	inactive: > 100 µM
NCCCNCCS [WR-1065]	inactive: > 100 µM
COc1cc(C(=O)CC2(O)C(=O)Nc3c(Cl)cc(Cl)cc32)ccc1O (centres undefined)	inactive: 70.5 µM
C(=C\c1c2oc(-c3ccccc3)cc(-c3ccccc3)c-2c2ccccc12)/C=C1\c2ccccc2-c2c(-c3ccccc3)cc(-c3ccccc3)[o+]c21.[O-][Cl+3]([O-])([O-])[O-]	inactive: > 100 µM
COC(=O)/C(=N\Nc1nc(S)nn1N)C(C#N)c1ccc(Cl)cc1 (centres undefined)	inactive: > 100 µM
NC(=O)C(=O)C1CCC2=C(Sc3ccccc3N2)C1=O (centres undefined)	inactive: > 100 µM
COc1ccc(NC(=S)c2ccoc2C)cc1CC(=O)OC(C)C	inactive: > 100 µM
Cc1cc(CC(=O)NCCO)n(CCO)c(=O)c1	inactive: > 100 µM
CCOC1CN(C)/C(=N\c2cccc3ccccc23)S1 (centres undefined)	inactive: > 10 µM
COC1/C=C\C=C(/C)C(=O)NC2=CC(=O)C=C(C2=O)C(OC)C(C)CC(OC)C(OC)C(C)/C=C(/C)C1OC(N)=O (centres undefined)	inactive: 16.2 µM
N#Cc1ccccc1NC(=O)C(=O)c1c(O)c2ccccc2oc1=O	inactive: > 100 µM
O=C1C=C(Nc2ccccc2C(=O)CC(=O)C(=O)Nc2cccc([N+](=O)[O-])c2)c2ccccc2C1=O	inactive: 58.7 µM
Cc1sc2nc3n(sc4nc5sc(C)c(C)c5c(=O)n43)c(=O)c2c1C	inactive: > 100 µM
CSC(=S)N/N=C(\C)c1cccc(C)n1	inactive: 2.05 µM

From ChEMBL document CHEMBL1201862, “PubChem BioAssay data set” (2004)
